Assay results published in PubChem BioAssay AID1508642 (National Center for Advancing Translational Sciences (NCATS), 2021).
The campaign covered roughly 43,000 compounds. About 200 (0.47%) were called active. The inconclusive results got no clear call from the source; some entries with a clear call stand among them for comparison. The call rests on the fitted dose curve; in most records, active means well fitted cell-killing curve with a large enough effect; inconclusive means small, poorly fitted or top-dose-only effect, or effect the other way; inactive means flat fitted curve, though single readings scatter. Potencies beside an inconclusive call are fits to weak or partial responses and may not hold up.

Assay: Cell viability qHTS assay in S16 Pmp22-F2sN cells; further: nearly all actives have a fitted effect of over 65% in size
Settings: S16 Pmp22-F2sN Schwann cells viability, CellTiter-Glo, 24 h; activity change, negative = cytotoxicity: at 57.5 µM (top of the series)
Method in brief: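 S16 Pmp22-F2sN Schwann cells (500-1,000/well) in phenol-red-free DMEM with 10% FBS received 23 nL compound by pin tool for 24 h at 37 °C. Viability was then read as CellTiter-Glo luminescence after 15 min at room temperature.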
On the % scale 0 is the no-effect control and ±100 the full control effect; potency means the concentration at half of the fitted maximal effect; tags describe the fitted curve by direction and shape.

SMILES | Potency | activity change, negative = cytotoxicity
CCn1c2ccccc2c2cc(CN3CCN(Cc4cc(OC)c(O)c(OC)c4)CC3)ccc21 | inconclusive: 39.8 µM [cytotoxic, single point] | 
Cc1ccc(NC(=O)c2sc3ncn(Cc4cccc(F)c4)c(=O)c3c2C)c(Br)c1 | inconclusive: 0.0178 µM [cytotoxic, full curve, poor fit] | 
CCOc1ccccc1NC(=O)CCCc1nc(-c2ccccc2Cl)no1 |  | inactive: 7.69%
Cc1c(C)n(Cc2ccccc2)c2ccc(C(=O)N3CCN(c4ccc(F)cc4)CC3)cc12 | inconclusive: 0.158 µM [rising, full curve, poor fit] | 
CCCc1nnc(NC(=O)c2cc(=O)c3ccccc3o2)s1 |  | inactive: -0.321%
CC1CCCCN1CCCNC(=O)c1cc(Sc2cccc(Cl)c2)nc2ccccc12 (stereo unspecified) | inconclusive: 31.6 µM [cytotoxic, single point] | 
O=C(Cn1cc(C(=O)C(F)(F)F)c2ccccc21)N1CCCCCC1 | inconclusive: 2.82 µM [rising, full curve, poor fit] | 
O=C(NCC(c1cccnc1)N1CCN(c2ccccc2F)CC1)C(=O)Nc1ccc(F)cc1F (stereo unspecified) | inconclusive: 39.8 µM [cytotoxic, single point] | 
O=C(CSc1nc2ncccc2[nH]1)Nc1cc(F)ccc1F | inconclusive: 31.6 µM [cytotoxic, partial curve, poor fit] | 
O=C(Nc1cccc(Cl)c1)C1CCCN(c2nn3cc(-c4ccc(F)cc4)nc3s2)C1 (stereo unspecified) |  | inactive: -25.9%
Clc1ccc(CCNc2nc3ccccc3c3nc(-c4ccccc4)nn23)cc1 |  | inactive: 0.151%
O=C(CSc1nnc(-c2ccncc2)n1-c1ccccc1)Nc1ccc(Cl)c(Cl)c1 | inconclusive: 6.31 µM [rising, partial curve, poor fit] | 
COc1ccc(S(=O)(=O)c2c(Nc3c(C)cccc3C)sc(C(=O)c3ccc4c(c3)OCO4)c2N)cc1 | inconclusive: 2 µM [cytotoxic, full curve] | 
CS(=O)(=O)c1ncc(Cl)c(C(=O)Nc2c(C(=O)Nc3ccccc3)oc3ccccc23)n1 | inconclusive: 11.2 µM [cytotoxic, partial curve, poor fit] | 
Cc1oc(-c2ccccc2F)nc1CSCC(=O)N1CCN(c2ccccc2)CC1 | inconclusive: 39.8 µM [cytotoxic, partial curve, poor fit] | 
Cc1cccc(N2CCN(S(=O)(=O)c3ccc4c(c3)C(C(C)C)C(=O)N4)CC2)c1C (stereo unspecified) | inconclusive: 15.8 µM [cytotoxic, partial curve, poor fit] | 
CCOc1ccc(CCNC(=O)Cn2c(-c3cccs3)cc3cc(F)ccc32)cc1OCC | inconclusive: 0.0282 µM [cytotoxic, full curve] | 
COc1ccccc1NC(=O)CSc1nc2nccnc2c(=O)n1CCc1c[nH]c2ccccc12 |  | inactive: -16.3%
CCOc1ccc(CCNC(=O)c2nc(-c3cccc(F)c3)n3c2CCCCC3)cc1OCC | inconclusive: 39.8 µM [cytotoxic, single point] | 
Cc1ccc2scc(N3CCC(C)CC3)c(=O)c2c1 |  | inactive: -1.13%
CCOC(=O)c1c(C)[nH]c(CCC(=O)NCCCN2CCN(c3cc(Cl)ccc3C)CC2)c1C | inconclusive: 39.8 µM [cytotoxic, single point] | 

SMILES | Potency | activity change, negative = cytotoxicity
COc1cccc(CNC(=O)CN2C(=O)CSc3c2c(C)nn3-c2ccccc2)c1OC | inconclusive: 28.2 µM [cytotoxic, partial curve, poor fit] | 
Cc1ccc2c(CC(=O)NCc3ccccc3)coc2c1C | inconclusive: 31.6 µM [cytotoxic, partial curve] | 
O=C(Nc1ccc(C(F)(F)F)cc1)c1cc(S(=O)(=O)NC2CCCCC2)ccc1F | inconclusive: 31.6 µM [cytotoxic, partial curve] | 
CCCN1C(=O)C(O)(CC(=O)c2ccc(OC)c(OC)c2)c2ccccc21 (stereo unspecified) | inconclusive: 28.2 µM [cytotoxic, single point] | 
CCOc1ccccc1NC(=O)c1sc2nc(C)cc(C)c2c1N |  | inactive: -1.72%
CC1CCc2noc(NC(=O)c3ccccc3[N+](=O)[O-])c2C1 (stereo unspecified) |  | inactive: -19.2%
CCOC(=O)N1CCN(Cc2nc3cc(NC(C)=O)ccc3n2C(C)C)CC1 | inconclusive: 31.6 µM [cytotoxic, single point] | 
COc1cccc(Cn2c(=O)n(CC3CCC(C(=O)N4CCCCC4)CC3)c(=O)c3sccc32)c1 (stereo unspecified) | inconclusive: 39.8 µM [cytotoxic, single point] | 
Cc1ccc2c(c1)c(=O)c1ccccc1n2CCCC(=O)Nc1ccc(C)c(F)c1 | inconclusive: 3.98 µM [rising, single point] | 
Cc1nnc2c(N3CCN(c4ccccc4F)CC3)nc3ccccc3n12 | inconclusive: 39.8 µM [cytotoxic, partial curve, poor fit] | 
Cc1ccc(C)c(N2CCN(C(=O)Nc3cn(CC(C)C)c(=O)c4ccccc34)CC2)c1 | inconclusive: 22.4 µM [cytotoxic, single point] | 
CCc1cccc(C)c1NC(=O)CCCn1c(=O)c2cccn2c2cccnc21 | inconclusive: 35.5 µM [rising, partial curve, poor fit] | 
CC(C(=O)NCc1ccccc1Cl)n1ccc2cc(S(=O)(=O)N3CCCCC3)ccc21 (stereo unspecified) | inconclusive: 28.2 µM [cytotoxic, single point] | 
Cc1ccc(-n2ncc(C(=O)NCCCN3CCCCC3)c2C2CCN(C(=O)OC(C)(C)C)CC2)c(C)c1 | inconclusive: 10 µM [cytotoxic, partial curve] | 
CCN(CC)C(=O)Cn1cc(SCC(=O)Nc2cccc(F)c2)c2ccccc21 |  | inactive: 2.94%
Cc1ccc(C2c3c(-c4cc(C)ccc4O)n[nH]c3C(=O)N2Cc2ccco2)cc1 (stereo unspecified) | inconclusive: 39.8 µM [cytotoxic, single point] | 
Cc1cccc(Cn2c(=O)n(Cc3ccc(C(=O)NC4CCN(Cc5ccccc5)CC4)cc3)c(=O)c3ccccc32)c1 | inconclusive: 3.16 µM [rising, full curve, poor fit] | 
CCOC(=O)c1cnc2c(C)cc(C)cc2c1Nc1cccc(C(=O)O)c1 | inconclusive: 39.8 µM [cytotoxic, single point] | 
Cc1ncc(CO)c2c1Oc1nc(-c3ccc(Cl)cc3)nc(SCC(=O)N3CCCCC3)c1C2 | inconclusive: 28.2 µM [cytotoxic, single point] | 
Cc1ccc(NC(=O)CSc2nc(-c3ccco3)cc(C(F)(F)F)n2)c(C)c1 | inconclusive: 7.08 µM [cytotoxic, partial curve, poor fit] | 
CS(=O)(=O)N(Cc1ccccc1)c1ccc(C(=O)Nc2cccc(Cl)c2)cc1 | inconclusive: 31.6 µM [cytotoxic, single point] | 

SMILES | Potency | activity change, negative = cytotoxicity
CCCCC1CCC(C(=O)N2CC(=O)Nc3ccc(C)cc3C2c2ccc(F)cc2)CC1 (stereo unspecified) | inconclusive: 39.8 µM [cytotoxic, single point] | 
CCOC(=O)C1CCN(C(=O)Cn2nc(CC)n3c(cc4sccc43)c2=O)CC1 |  | inactive: -8.09%
CC(NC(=O)Cn1ccc2cc(S(=O)(=O)N3CCCCCC3)ccc21)c1ccccc1 (stereo unspecified) | inconclusive: 31.6 µM [cytotoxic, single point] | 
Cc1ccc(NC(=O)Nc2nnc(N3CCCC3)s2)cc1C | inconclusive: 7.08 µM [cytotoxic, partial curve, poor fit] | 
O=C(CN1C(=O)COc2ccc(S(=O)(=O)NC3CCCC3)cc21)NCc1ccc(Cl)cc1 |  | inactive: -4.53%
COc1ccc(-c2cc(C(F)(F)F)nc(SCCC(=O)Nc3ccc(OC)c(OC)c3)n2)cc1 | inconclusive: 11.2 µM [rising, partial curve, poor fit] | 
CCN1CCC(N(Cc2ccc3c(c2)OCO3)C(=O)Nc2cc(F)ccc2F)CC1 |  | inactive: 5.79%
Cc1cc(C)c(-c2n[nH]c3c2C(c2ccccc2F)N(Cc2ccco2)C3=O)c(O)c1 (stereo unspecified) |  | inactive: -14.9%
Cc1ccc(-n2ncc(C(=O)NCCCN3CCc4ccccc4C3)c2C2CCN(C(=O)OC(C)(C)C)CC2)c(C)c1 | inconclusive: 31.6 µM [cytotoxic, single point] | 
CCCCN(CC)CCCNC(=O)c1ccc2c(c1)NC(=O)CN2C | inconclusive: 0.501 µM [rising, full curve, poor fit] | 
COc1ccc2c(c1)-c1nc(NC(=O)c3cc(OC)c(OC)c(OC)c3)sc1CC2 | inconclusive: 35.5 µM [cytotoxic, single point] | 
O=C(C1CCC(Cn2c(=O)c3sccc3n(Cc3ccc(F)cc3)c2=O)CC1)N1CCOCC1 (stereo unspecified) | inconclusive: 39.8 µM [cytotoxic, single point] | 
CCc1ccc2oc(C(=O)NCc3ccccc3)cc(=O)c2c1 | inconclusive: 31.6 µM [cytotoxic, single point] | 
Cc1ccc(-n2c(=O)c3ccc(C(=O)NCc4ccccc4Cl)cc3n(CC(=O)Nc3ccc(C)cc3C)c2=O)cc1 |  | inactive: 10.9%
CCOc1ccc(NC(=O)C(=O)NCC(c2cccnc2)N2CCc3ccccc32)cc1 (stereo unspecified) | inconclusive: 39.8 µM [cytotoxic, single point] | 
COc1ccc(-c2nc(SCC(=O)NC3CCCC3)c(-c3ccc(C)cc3)[nH]2)cc1OC | inconclusive: 39.8 µM [cytotoxic, partial curve, poor fit] | 
Cc1ccc(C(=O)c2cn(Cc3ccccc3C)c3nc(C)ccc3c2=O)cc1 | inconclusive: 39.8 µM [cytotoxic, single point] | 
CCOc1ccc(CN2CCc3nc(N4CCN(c5ccccn5)CC4)ncc3C2)cc1OC | inconclusive: 39.8 µM [cytotoxic, single point] | 
CCn1c(=N)n(CC(O)COc2ccccc2)c2ccccc21 (stereo unspecified) |  | inactive: 10.2%
